Measurements published in patent US20240174727A1, “LONG-ACTING NATRIURETIC PEPTIDES AND USES THEREOF” (Eli Lilly and Company, priority 2022, published 2024).
Read-outs that look alike come from different tables or passages of the source. At least one structure is not confirmed: it was looked up by name or label, or the drawing left a doubt. Numbered stars: 1 amine (or outer) side, 2 acyl side, 3 side chain; on linkers, the order of the positions; unused ones are H or OH. Bridge positions count the residues as written; N and C are the ends. Square brackets hold non-standard residues; d marks the D form. Peptide text beside a SMILES is read from it. * marks the point of attachment. C20 diacid = O=C(O)CCCCCCCCCCCCCCCCCCC(=O)*; γGlu = O=C(O)[C@H](CCC(=O)[*:2])N[*:1]; AEEA = NCCOCCOCC(=O)O; CH2 = C([*:1])[*:2]; βAla = NCCC(=O)O

Molecular target: T1, human NPRA (Homo sapiens, UniProt P16066)
T1 construct: Full-Length cDNA Cloning and Generation of Cell Lines Overexpressing Natriuretic Peptide Receptors (NPRs); expressed in transfected cells; host or cells: Jump-in T-Rex HEK293 cells, pJTI R4 CMV-TO MCS pA vector, tetracycline induction
T1 sequence (P16066 33-1061): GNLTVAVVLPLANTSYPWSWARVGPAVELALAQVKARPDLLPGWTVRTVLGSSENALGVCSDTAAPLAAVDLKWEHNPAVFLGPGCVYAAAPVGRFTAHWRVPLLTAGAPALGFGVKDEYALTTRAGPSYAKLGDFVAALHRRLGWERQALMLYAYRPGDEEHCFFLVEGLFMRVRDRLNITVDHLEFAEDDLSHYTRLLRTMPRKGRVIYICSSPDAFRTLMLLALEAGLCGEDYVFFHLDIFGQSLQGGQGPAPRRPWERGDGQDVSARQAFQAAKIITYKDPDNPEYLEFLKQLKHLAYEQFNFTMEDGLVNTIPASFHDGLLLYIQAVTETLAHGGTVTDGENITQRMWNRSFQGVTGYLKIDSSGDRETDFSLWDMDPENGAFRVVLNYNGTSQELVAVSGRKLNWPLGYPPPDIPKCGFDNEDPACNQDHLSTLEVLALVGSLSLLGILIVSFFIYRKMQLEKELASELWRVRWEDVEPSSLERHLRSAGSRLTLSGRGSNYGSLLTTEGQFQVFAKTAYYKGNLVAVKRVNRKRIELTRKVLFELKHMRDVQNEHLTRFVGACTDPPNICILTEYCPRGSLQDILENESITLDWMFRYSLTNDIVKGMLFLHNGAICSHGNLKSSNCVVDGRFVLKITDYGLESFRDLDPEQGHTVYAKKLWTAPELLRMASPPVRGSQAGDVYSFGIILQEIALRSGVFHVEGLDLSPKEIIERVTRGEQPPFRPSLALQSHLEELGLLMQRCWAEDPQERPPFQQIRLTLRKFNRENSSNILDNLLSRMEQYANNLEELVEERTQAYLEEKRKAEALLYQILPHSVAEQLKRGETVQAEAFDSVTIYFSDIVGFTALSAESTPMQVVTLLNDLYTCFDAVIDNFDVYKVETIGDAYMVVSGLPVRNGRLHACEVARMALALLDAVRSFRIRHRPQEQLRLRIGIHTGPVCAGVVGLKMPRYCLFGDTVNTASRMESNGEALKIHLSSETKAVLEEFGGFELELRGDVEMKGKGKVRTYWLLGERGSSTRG
Assay: Human NPRA cGMP activity assay (HTRF) in HEK293 cells overexpressing NPRA
Format: cell-based
Description: All sequences were verified by full-length sequencing performed by ACGT DNA Sequencing Services (Wheeling, IL). The target cDNA was cloned into pJTI R4 CMV-TO MCS pA vector and then co-transfected with pJT1R4 Int vector into Jump-in™ T-Rex™ HEK293 cells for mammalian inducible expression using Jump-in™ T-Rex™ HEK293 kit and Lipofectamine LTX and Plus Reagent following manufacturer's protocols, as briefly described below.
Jump-in™ T-Rex™ HEK293 cells were plated in a BioCOAT® poly-D-lysine coated 6-well plate (Becton Dickinson, cat no. 354413) at 1 million cells/well in 2 mL culture medium and incubated for 18 h at 37° C. and 5% CO2 to 50-70% confluence. A cDNA mix was made in a 50 mL tube by adding 1.5 μg target cDNA, 1.5 μg pJT1R4 Int vector, 3 μL Plus Reagent, and 300 μL Opti-MEM I sequentially into the tube. A reagent mix was made in a separate 50 mL tube by adding 7.5 μL Lipofectamine LTX into 300 μL Opti-MEM I. The mixtures were incubated for 5 min at room temperature. The cDNA mix was then transferred into the reagent mix, mixed well, and incubated for additional 30 min at room temperature. […]
NPRs were overexpressed in T-Rex™ HEK293 cells following the induction with 300 ng/mL tetracycline in culture medium for 48 h. Induced cell lines in an exponential growth phase were treated with 0.05% trypsin-EDTA for a few seconds at room temperature, harvested in cell medium containing FBS to neutralize the trypsin, counted, and cryopreserved at the density of 2 million cells/mL in cell preservation solution containing FBS-HI with 5% DMSO. […]
Test polypeptides were added starting at 10 μM concentration and at 10-fold decreasing concentrations to obtain 8-point concentration-response curves (i.e., 10 μM to 1 pM). The quantity of cGMP generated was detected using HTRF® technology and normalized to maximum amount produced by 100 nM amidated rat ANP and the minimum amount produced by assay buffer. […]
The cGMP generated was measured using cGMP kit following the manufacturer's directions, as described below.

Question: For `CC[C@H](C)[C@@H]1NC(=O)[C@H](CCCNC(=N)N)NC(=O)[C@H](CC(=O)O)NC(=O)[C@H]([C@@H](C)CC)NC(=O)[C@H](CCCNC(=N)N)NC(=O)CNC(=O)CNC(=O)[C@H](Cc2ccccc2)NC(=O)[C@@H](NC(=O)[C@H](CO)NC(=O)[C@H](CO)NC(=O)[C@H](CCCNC(=N)N)NC(=O)CCNC(=O)[C@H](CCCCN)NC(=O)[C@H](CCC(=O)O)NC(=O)CNC(=O)[C@H](CCCCN)NC(=O)[C@H](CCC(=O)O)NC(=O)[C@H](CCCCN)NC(=O)[C@H](CCC(=O)O)NC(=O)[C@H](CCCCN)NC(=O)[C@H](CCC(=O)O)NC(=O)CC[C@H](NC(=O)CCCCCCCCCCCCCCCCC(=O)O)C(=O)O)CSCSC[C@@H](C(=O)N2CCC[C@H]2C(=O)N[C@@H](CO)C(=O)N[C@@H](Cc2ccccc2)C(=O)N[C@@H](CCCNC(=N)N)C(=O)N[C@@H](Cc2c[nH]cn2)C(=O)NCC(=O)NCC(=O)N2CCC[C@H]2C(=O)N[C@@H](CO)C(=O)N[C@@H](CO)C(=O)NCC(=O)N[C@@H](C)C(=O)N2CCC[C@H]2C(=O)N2CCC[C@H]2C(=O)N2CCC[C@H]2C(=O)N[C@@H](CO)C(N)=O)NC(=O)CNC(=O)[C@H](CC(C)C)NC(=O)CNC(=O)[C@H](CO)NC(=O)[C@H](Cc2ccc(O)cc2)NC(=O)[C@H](Cc2c[nH]cn2)NC(=O)CNC1=O` [Example 70], which EC50 (read-out: cGMP Assay (EC50, pM) w/Casein hNPRA, assay buffer with 0.1% casein) is on record?
Answer: Its EC50 is 1840 pM.

Question: How did the EC50 (assay buffer with 0.1% BSA, read-out: cGMP Assay (EC50, pM) w/BSA hNPRA) turn out when `CC[C@H](C)[C@@H]1NC(=O)[C@H](CCCNC(=N)N)NC(=O)[C@H](CC(=O)O)NC(=O)[C@H]([C@@H](C)CC)NC(=O)[C@H](CCCNC(=N)N)NC(=O)[C@H](CCCCN)NC(=O)CNC(=O)[C@H](Cc2ccccc2)NC(=O)[C@@H](NC(=O)[C@H](CO)NC(=O)[C@H](CO)NC(=O)[C@H](CCCNC(=N)N)NC(=O)CCNC(=O)[C@H](CCCCN)NC(=O)[C@H](CCC(=O)O)NC(=O)COCCOCCNC(=O)COCCOCCNC(=O)COCCOCCNC(=O)COCCOCCNC(=O)COCCOCCNC(=O)COCCOCCNC(=O)COCCOCCNC(=O)COCCOCCNC(=O)CC[C@H](NC(=O)CCCCCCCCCCCCCCCCCCC(=O)O)C(=O)O)CSCSC[C@@H](C(=O)N2CCC[C@H]2C(=O)N[C@@H](CO)C(=O)N[C@@H](Cc2ccccc2)C(=O)N[C@@H](CCCNC(=N)N)C(=O)N[C@@H](Cc2c[nH]cn2)C(=O)NCC(=O)NCC(=O)N[C@@H](CCCCN)C(=O)N[C@@H](CO)C(=O)N[C@@H](CO)C(=O)NCC(=O)N[C@@H](C)C(=O)N2CCC[C@H]2C(=O)N2CCC[C@H]2C(=O)N2CCC[C@H]2C(=O)N[C@@H](CO)C(N)=O)NC(=O)CNC(=O)[C@H](CC(C)C)NC(=O)CNC(=O)[C@H](CO)NC(=O)[C@H](CCC(N)=O)NC(=O)[C@H](Cc2c[nH]cn2)NC(=O)CNC1=O` [Example 90] ({C20 diacid-γGlu-AEEA-AEEA-AEEA-AEEA-AEEA-AEEA-AEEA-AEEA}-EK[βAla]RSSCFGKRIDRIGHQSGLGCPSFRHGGKSSGAPPPS-NH2; linker 7-23 via CH2) was run?
Answer: The EC50 was 19700 pM.

Question: `CC[C@H](C)[C@@H]1NC(=O)[C@H](CCCNC(=N)N)NC(=O)[C@H](CC(=O)O)NC(=O)[C@H]([C@@H](C)CC)NC(=O)[C@H](CCCNC(=N)N)NC(=O)[C@H](CCCCN)NC(=O)CNC(=O)[C@H](Cc2ccccc2)NC(=O)[C@@H](NC(=O)[C@H](CO)NC(=O)[C@H](CO)NC(=O)[C@H](CCCNC(=N)N)NC(=O)CCNC(=O)[C@H](CCCCN)NC(=O)[C@H](CCC(=O)O)NC(=O)CNC(=O)[C@H](CCCCN)NC(=O)[C@H](CCC(=O)O)NC(=O)[C@H](CCCCN)NC(=O)[C@H](CCC(=O)O)NC(=O)[C@H](CCCCN)NC(=O)[C@H](CCC(=O)O)NC(=O)CC[C@H](NC(=O)CCCCCCCCCCCCCCCCC(=O)O)C(=O)O)CSCSC[C@@H](C(=O)N2CCC[C@H]2C(=O)N[C@@H](CO)C(=O)N[C@@H](Cc2ccccc2)C(=O)N[C@@H](CCCNC(=N)N)C(=O)N[C@@H](Cc2c[nH]cn2)C(=O)NCC(=O)N[C@@H](CO)C(=O)N2CCC[C@H]2C(=O)N[C@@H](CO)C(=O)N[C@@H](CO)C(=O)NCC(=O)N[C@@H](C)C(=O)N2CCC[C@H]2C(=O)N2CCC[C@H]2C(=O)N2CCC[C@H]2C(=O)N[C@@H](CO)C(N)=O)NC(=O)CNC(=O)[C@H](CC(C)C)NC(=O)CNC(=O)[C@H](CO)NC(=O)[C@H](Cc2ccc(O)cc2)NC(=O)[C@H](Cc2c[nH]cn2)NC(=O)CNC1=O` [Example 101] was tested. Which EC50 (read-out: cGMP Assay (EC50, pM) w/BSA hNPRA, assay buffer with 0.1% BSA) did it give?
Answer: Its EC50 is 11600 pM.
